Assay results taken from EPA's CvTdb concentration-time database.
Further values from the same series stand in other lists.

Test system: rat
Assay: concentration in blood after dosing

CC(C)(C)CC(C)(C)c1ccc(O)cc1 [octylphenol]
dosed: p-tert-octylphenol, 125 mg/kg, female, Sprague-Dawley
Conditions | concentration in blood [ng/mL]
0.9757 h | 21.4
1.988 h | 44.6
4.068 h | 117
5.946 h | 218
7.99 h | 182
12.02 h | 193
24.01 h | 130

ClC=C(Cl)Cl [trichloroethylene]
concentration in blood [ng/mL], dosed: trichloroethylene, inhalation, duration: 2 hr, male, Sprague Dawley
Conditions | 50 ppm | 500 ppm
0.1305 h | – | 6930
0.1655 h | – | 7220
0.2483 h | – | 7610
0.3301 h | – | 10200
0.4094 h | – | 11200
0.4952 h | – | 12200
0.7436 h | – | 13500
0.995 h | – | 15300
1.244 h | – | 14500
1.496 h | – | 15400
1.503 h | 644 | –
1.748 h | – | 15300
1.75 h | 596 | –
1.997 h | – | 17200
2 h | 606 | –
2 min | – | 3070
2.027 h | – | 12900
2.029 h | 342 | –
2.061 h | 272 | –
2.063 h | – | 12500
2.093 h | 263 | –
2.102 h | – | 11500
2.131 h | – | 10400
2.132 h | 166 | –
2.162 h | 227 | –
2.166 h | – | 10100
2.246 h | – | 8870
2.25 h | 154 | –
2.328 h | 167 | –
2.333 h | – | 7560
2.411 h | 96.6 | –
2.416 h | – | 7410
2.498 h | 126 | –
2.5 h | – | 6680
2.745 h | 85.5 | –
2.746 h | – | 5610
2.998 h | 74.1 | –
3.003 h | – | 3470
3.249 h | – | 2600
3.251 h | 57.9 | –
3.501 h | 46.5 | 1920
3.747 h | – | 1590
3.751 h | 32.7 | –
3.993 h | – | 1350
4 h | 23.7 | –
4.495 h | – | 868
4.5 h | 15.5 | –
4.996 h | – | 780
221 s | – | 4490
347 s | – | 4780
